From PubChem BioAssay AID1745853 (National Center for Advancing Translational Sciences (NCATS), 2022)
This is one part of the list. Shown are side measurements of this screen, not its main read-out; they come without a call.

Key:
Assay in all cases: Primary Screen for Target Class Profiling of Small Molecule Inhibitors of Methyltransferases
[1] = target: Glycine N-methyltransferase (Homo sapiens) (UniProt Q14749); settings: purified enzyme, MTase-Glo SAH luminescence; measured here: GNMT inhibition; at 40 µM; stronger effect = lower value
Summary of the method: (§1)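 Each enzyme was assayed with SAM and its substrate. SAH formation detected by MTase-Glo luminescence; single-point 40 uM screen[…].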

[2] = target: Guanidinoacetate N-methyltransferase (Homo sapiens) (UniProt Q14353); settings: purified enzyme, MTase-Glo SAH luminescence; measured here: GAMT inhibition; at 40 µM; stronger effect = lower value
Summary of the method: as §1

[3] = target: Histamine N-methyltransferase (Homo sapiens) (UniProt P50135); settings: purified enzyme, MTase-Glo SAH luminescence; measured here: HNMT inhibition; at 40 µM; stronger effect = lower value
Summary of the method: as §1

[4] = target: Nicotinamide N-methyltransferase (Homo sapiens) (UniProt P40261); settings: purified enzyme, MTase-Glo SAH luminescence; measured here: NNMT inhibition; at 40 µM; stronger effect = lower value
Summary of the method: as §1

[5] = target: Phenylethanolamine N-methyltransferase (Homo sapiens) (UniProt P11086); settings: purified enzyme, MTase-Glo SAH luminescence; measured here: PNMT inhibition; at 40 µM; stronger effect = lower value
Summary of the method: as §1
% is scaled to controls: 0 for no effect and ±100 for the full control effect.

| SMILES | activity change, negative = inhibition [1] [%] | activity change, negative = inhibition [2] [%] | activity change, negative = inhibition [3] [%] | activity change, negative = inhibition [4] [%] | activity change, negative = inhibition [5] [%] |
| --- | --- | --- | --- | --- | --- |
| Cc1ccc(-c2nnn3c2nc(NCc2ccc4c(c2)OCO4)c2ccccc23)cc1 | 3.82 | 1.25 | 7.35 | 7.1 | 1.03 |
| Cc1cc(C)cc(N2C(=O)c3cc4sccc4n3CC2(C)C(=O)NC2CCCCCCC2)c1 (stereo not given) | 5.67 | 0 | 8.84 | 8.29 | 4.37 |
| CNc1nc2c(s1)C[C@]1(C)CCC([C@H](C)C(=O)N3CCSCC3)[C@H](O)[C@H]1[C@@H]2C (stereo not given in full) | -7.05 | -6.92 | -3.8 | -16.6 | -7.24 |
| Cc1cc(C)c(/C=C2\C(=O)Nc3ccccc32)[nH]1 | -13.7 | 0.047 | -4.47 | -6.56 | 1.76 |
| COc1ccc(CCN2CCC(CN(C)C(=O)C3CCCCO3)CC2)cc1 (stereo not given) | -3.24 | -6.53 | -1.46 | -7.7 | 0.309 |
| Cn1c(=O)n(C)c2cc(S(=O)(=O)Nc3cccc(C(=O)O)c3)ccc21 | -1.53 | 0 | 3 | 10.4 | -1.6 |
| Cc1cc(C)cc(-c2cnc3cc(Cl)c(-c4cccc(O)c4)cc3c2OCCCN)c1 | -8.39 | -10.2 | -24 | -93.3 | -9.66 |
| CC1=C2C(=O)C=C(CO)[C@@H]2[C@H]2OC(=O)[C@H](C)[C@@H]2[C@@H](O)C1 | -0.682 | 0.164 | 6.55 | -8.53 | -0.161 |
| O=C(NCc1ccccc1Cl)c1ccc2c(=O)nc3c(-c4ccccc4F)n[nH]n3c2c1 | -24.9 | 4.81 | 1.06 | -0.818 | -5.66 |
| Cn1c(=O)n(C)c2cc(S(=O)(=O)N3CCN(c4ccccn4)CC3)ccc21 | -0.026 | -1.86 | -5.68 | -1.3 | -11.6 |
| CN1C(=O)c2cc(C(=O)NCc3cccnc3)nn2CC1(C)C(=O)NC1CCCCCC1 (stereo not given) | 1.74 | 4.67 | -7.4 | 1.65 | 2.94 |
| O=C(NCCc1csc(-c2ncccn2)n1)C1NCCc2[nH]cnc21 (stereo not given) | -4.84 | -7.79 | -6.99 | -12.3 | -8.63 |
| CC1(C(=O)NC2CCCCC2)Cn2c(cc3sccc32)C(=O)N1Cc1ccco1 (stereo not given) | -2.6 | 4.73 | 3.22 | -0.365 | -1.5 |
| CCCn1c(=O)c2ccc(C(=O)NC3CCCC3)cc2n2c(SCC(=O)NC(C)(C)C)nnc12 | -2.69 | 0.774 | 5.38 | 0.024 | 5.46 |
| O=C(c1cn[nH]c1)N1CC2(CN(Cc3cccc(Cl)c3)CC2COc2ccccc2)C1 (stereo not given) | -9.94 | -2.19 | -3.56 | -7.82 | -16.2 |
| CCCOc1ccc(CN2C(=O)c3cc4occc4n3CC2(C)C(=O)NC2CCCCCCC2)cc1 (stereo not given) | -0.169 | 0 | 6.13 | -7.88 | -0.878 |
| Cc1ccccc1CN1C(=O)c2nc3ccccc3n2CC1(C)C(=O)NC1CCCC(C)C1C (stereo not given) | 4.29 | 2.51 | 3.29 | 1.02 | 1.13 |
| COc1ccc(-c2nc3c(c(-c4ccccc4)n2)CN(C(=O)c2ccc(F)cc2)CC3)cc1 | -7.07 | -10 | -7.95 | -18.9 | -16.1 |
| COc1ccc2c(c1)C(COCc1ccc(S(C)(=O)=O)cc1)CC(C)(C)O2 (stereo not given) | -9.19 | -8.79 | -2.77 | -15 | -7.61 |
